Assay results as given in PubChem BioAssay AID720569 (National Center for Advancing Translational Sciences (NCATS), 2013).
The shares of active, inactive and inconclusive entries below differ from those in the screen. A potency beside an inconclusive call is a rough fit, not a confirmed value. The source made the active and inactive calls. Calls follow the shape of the dose curve; as a rule, active = well fitted inhibition curve with a large enough effect; inconclusive = small, poorly fitted or top-dose-only effect; inactive = no such curve, though single readings can be large or run the other way.

tested on: pyruvate kinase (Trypanosoma brucei); assay: qHTS of Trypanosoma Brucei Inhibitors: Confirmatory Assay for Cherry-picked Compounds; settings: recombinant TbPYK, Kinase-Glo ATP luminescence; activity change, negative = inhibition: at 76.9 µM (top of the series); also: nearly all actives have a fitted effect of over 70% in size
Method in brief: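 TbPYK in 50 mM TEA pH 7.2, 100 mM KCl, 10 mM MgCl2, 0.05% BSA, 0.01% Tween-20; reaction started with ADP (130 uM final), 45 min at room temperature. ATP formed read by Kinase-Glo Plus luminescence; concentration-effect curves fitted.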
% is scaled to controls: 0 for no effect and ±100 for the full control effect; potency is read from the fitted curve at half-maximal effect; tags tell the direction and shape of the fitted curve.

| Compound | Potency | activity change, negative = inhibition |
| --- | --- | --- |
| c1ccc(Cc2nn3c(C4COc5ccccc5O4)nnc3s2)cc1 (stereo not given) | inconclusive: 7.08 µM [inhibitor, partial curve] | – |
| CC(C)CN(C(=O)CN1CCN(c2ccc(O)cc2)CC1)c1c(N)n(CC(C)C)c(=O)[nH]c1=O | inconclusive: 35.5 µM [inhibitor, partial curve, poor fit] | – |
| O=C(CSc1cc([N+](=O)[O-])cc(S(=O)(=O)Cc2ccccc2)c1)NC1CC1 | inconclusive: 22.4 µM [inhibitor, partial curve, poor fit] | – |
| COc1ccc(OC)c(S(=O)(=O)Nc2cc3c(cc2N2CCCC2)n(C)c(=O)c(=O)n3C)c1 | – | inactive: -21.4% |
| CCC(=O)N(CC)C1=C(O)c2ccccc2C(=O)C1=O | – | inactive: -98.4% |
| CC(=O)c1cccc(OCc2cc(C(=O)N(C)Cc3ccc(C)o3)no2)c1 | active: 14.1 µM | – |
| Cc1ccc(/C=C/C(=O)Nc2cccc3ncccc23)o1 | inconclusive: 31.6 µM [inhibitor, single point] | – |
| C=CCn1c(=S)[nH]c2scc(-c3ccco3)c2c1=O | active: 14.1 µM | – |
| C[C@@H]1CCCCO[C@H](CN(C)C(=O)Nc2cccc3ccccc23)[C@@H](C)CN([C@H](C)CO)C(=O)c2cc(N(C)C)ccc2O1 | active: 3.55 µM | – |
| O=C(c1ccccc1)c1ccc2nc(-c3ccco3)c(-c3ccco3)nc2c1 | inconclusive: 35.5 µM [inhibitor, partial curve] | – |
| O=C1C=CC(=O)N1c1ccc(OC(F)F)cc1 | – | inactive: -13.3% |
| c1ccc(C[n+]2csc3ccccc32)cc1 | inconclusive: 10 µM [inhibitor, partial curve] | – |
| CC1(C)OC(=O)C(=Cc2ccc(-c3ccc(Cl)c(C(=O)O)c3)o2)C(=O)O1 | active: 7.08 µM | – |
| Cc1ccc2c(c1)C(N1CCCC1=O)CC(c1ccco1)N2 (stereo not given) | – | inactive: -11.1% |
| O=C(Nc1nc2ccc(S(=O)(=O)N3CCCC3)cc2s1)c1ccccn1 | inconclusive: 28.2 µM [inhibitor, single point] | – |
| CCN(CC)Cc1cc(O)c(CN(CC)CC)cc1O | – | inactive: -98.9% |
| COc1ccc(S(=O)(=O)N2CCCC(C(=O)Nc3cccnc3)C2)cc1Cl (stereo not given) | – | inactive: -4.26% |
| CCOC(=O)C(=C1Nc2ccccc2N1)n1c(-c2ccco2)nc2ccccc21 | – | inactive: -71.9% |

| Compound | Potency | activity change, negative = inhibition |
| --- | --- | --- |
| O=C1N=C(c2ccccc2)S/C1=C\c1cccs1 | active: 4.47 µM | – |
| CS(=O)(=O)c1sc2nc(-c3cccs3)cc(-c3ccccc3)c2c1N | inconclusive: 7.08 µM [inhibitor, partial curve, poor fit] | – |
| Cc1ccc(Nc2nc(CSc3nnc(-c4ccncc4)n3-c3ccccc3C)cs2)cc1 | inconclusive: 35.5 µM [inhibitor, partial curve] | – |
| COc1cccc(NC(=O)c2sc3nc(N4CCOCC4)c4c(c3c2N)CCCC4)c1 | inconclusive: 7.08 µM [inhibitor, partial curve, poor fit] | – |
| O=C(N/N=C/c1ccc(N2CCOCC2)o1)c1cccc(C(F)(F)F)c1 | inconclusive: 31.6 µM [inhibitor, single point] | – |
| Cc1ccc(/C=C/C(=O)N2CC(C)CC(C)C2)o1 (stereo not given) | inconclusive: 31.6 µM [inhibitor, partial curve, poor fit] | – |
| Cc1ccc(S(=O)(=O)C=CS(=O)(=O)c2ccc(C)cc2)cc1 | – | inactive: -60.6% |
| O=c1cc(NCc2ccccc2)[nH]c(=O)[nH]1 | inconclusive: 28.2 µM [inhibitor, single point] | – |
| COC(=O)COc1ccc(C2Nc3c(Cl)ccc(C(=O)O)c3C3C=CCC32)cc1 (stereo not given) | inconclusive: 17.8 µM [inhibitor, partial curve] | – |
| CC(=O)Oc1ccc(N2C(=O)C3C4C=CC(CO)(O4)C3C2=O)cc1 (stereo not given) | – | inactive: -48.2% |
| O=C(O)c1ccc(NS(=O)(=O)c2ccc3c(c2)C2C=CCC2C(c2ccccc2F)N3)cc1 (stereo not given) | inconclusive: 11.2 µM [inhibitor, partial curve, poor fit] | – |
| CCOc1ccccc1N1C(=O)CC(Sc2n[nH]c(-c3ccccc3)n2)C1=O (stereo not given) | active: 7.08 µM | – |
| COc1ccc(S(=O)(=O)N2CCN(CC(=O)c3ccc(O)c(O)c3)CC2)cc1 | inconclusive: 35.5 µM [inhibitor, partial curve] | – |
| O=C(Nc1cnn(Cc2ccc(Cl)cc2)c1)c1cccs1 | – | inactive: -5.63% |
| COc1cc(N=c2ssnc2Cl)cc(OC)c1 | active: 3.98 µM | – |
| O=S(=O)(NCCC1=CCCCC1)c1cccc(S(=O)(=O)N2CCOCC2)c1 | – | inactive: -0.484% |
| CC1(C)Cc2c(C#N)c(NCCc3ccccc3)nc(-c3ccco3)c2CO1 | inconclusive: 25.1 µM [inhibitor, partial curve] | – |
